{"source": "PubChem BioAssay AID1745845", "about": "(National Center for Advancing Translational Sciences (NCATS), 2022)", "note": "Out of some 360,000 compounds screened, about 2,600 (0.72%) were called active. The shares of active, inactive and inconclusive entries below differ from those in the screen. Calls come from the whole dose curve; as a rule, active = well fitted inhibition curve with a large enough effect; inconclusive = small, poorly fitted or top-dose-only effect; inactive = no such curve, though single readings can be large or run the other way. A potency beside an inconclusive call is a rough fit, not a confirmed value. % is set by controls: 0 for no effect and ±100 for the full control effect; potency is the fitted concentration of half-maximal effect; tags give direction and shape of the fitted curve.", "data": [{"experiment": "Primary qHTS for Inhibitors of ATXN expression; note: nearly all actives have a fitted effect of over 55% in size", "details": "HEK-293 ATXN2-luciferase reporter, luminescence, 24 h; activity change, negative = inhibition: at 57 µM (top of the series)", "how_it_was_run": "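ATXN2-luciferase reporter cells (luciferase flanked by upstream and downstream ATXN2 gene portions) were treated 24 h at 37 °C with compounds at up to 57 uM. SteadyGlo luminescence gave expression; GF-AFC fluorescence gave viability.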", "values": [{"smiles": "CCCCc1c(-c2ccc(OC)c(OC)c2)ncn1CCc1ccccc1OC", "Potency": "inconclusive: 14.1 µM [inhibitor, partial curve, poor fit]"}, {"smiles": "Cc1cc(C(=O)COC(=O)c2ccc(O)cc2)c(C)n1Cc1ccco1", "activity change, negative = inhibition": "inactive: 86.1%"}, {"smiles": "Nc1c(O)ccc2c1C(=O)c1ccccc1C2=O", "activity change, negative = inhibition": "inactive: 6.62%"}, {"smiles": "Cc1ccnc(N(C(=O)Nc2ccccc2)C2=NCC(C)(C)S2)c1", "activity change, negative = inhibition": "inactive: 2.26%"}, {"smiles": "CCc1ccc(NC(=O)CN2C(=O)C(=O)c3ccccc32)cc1", "activity change, negative = inhibition": "inactive: 9.22%"}, {"smiles": "O=C(O)[C@H]1O[C@H](Oc2cc3oc(-c4ccccc4)cc(=O)c3c(O)c2O)[C@H](O)[C@@H](O)[C@H]1O", "activity change, negative = inhibition": "inactive: -19%"}, {"smiles": "Cc1c(Cl)c(C(=O)NNC(=S)Nc2ccccc2)nn1C", "activity change, negative = inhibition": "inactive: 24%"}, {"smiles": "Cc1ccc(-n2[nH]c(=O)c(-c3ccccn3)c2C)cc1", "Potency": "active: 1.78 µM"}, {"smiles": "C=C1CCC2C(C)(C)[C@H](O)CC[C@@]2(C)[C@@H]1COc1cc(=O)oc2ccccc12", "note": "(some centres undefined)", "Potency": "inconclusive: 39.8 µM [inhibitor, single point]"}, {"smiles": "Cc1ccc(NC(=O)c2nc[nH]c2C(=O)N[C@@H](C)c2ccccc2)cc1", "Potency": "inconclusive: 39.8 µM [inhibitor, single point]"}, {"smiles": "CCN(CC)CCN(Cc1cc2cc3c(cc2[nH]c1=O)OCO3)C(=S)NCc1ccco1", "activity change, negative = inhibition": "inactive: 3.53%"}, {"smiles": "CC(C)C[C@H](NC(=O)[C@@H](O)[C@H](N)Cc1ccccc1)C(=O)O", "Potency": "inconclusive: 21.7 µM [inhibitor, partial curve]"}, {"smiles": "Cc1ccc(NC(=O)CN(C)S(=O)(=O)c2cccs2)cc1C", "activity change, negative = inhibition": "inactive: 32.8%"}, {"smiles": "O=C(CSc1nc2c(c(C(F)(F)F)n1)CCc1ccccc1-2)NCc1ccccc1", "activity change, negative = inhibition": "inactive: -10%"}, {"smiles": "Cc1cccc(-n2cc(CNCCc3nc(C)cc(C)n3)c(-c3cccc(F)c3)n2)c1", "Potency": "active: 28.2 µM"}, {"smiles": "Cc1ccc2c(Sc3ccc(Cl)cc3)c(C(=O)N3CCCCC3)[nH]c2c1", "Potency": "inconclusive: 39.8 µM [inhibitor, single point]"}, {"smiles": "COc1ccc(C(CCN2CCCC2)c2c(OC)cc(OC)c3c(-c4ccccc4)cc(=O)oc23)cc1", "note": "(centres undefined)", "Potency": "inconclusive: 39.8 µM [inhibitor, single point]"}, {"smiles": "CCCCC(=O)Nc1cccc(-c2nnc(-c3ccccc3)o2)c1", "activity change, negative = inhibition": "inactive: -20.9%"}, {"smiles": "CN(/N=C/c1ccc(O)cc1O)c1nc(-c2ccccc2)cc(-c2ccccc2)n1", "Potency": "inconclusive: 35.5 µM [inhibitor, single point]"}, {"smiles": "Cc1cccc(C(=O)N2CCN(Cc3ccc4c(c3)OCO4)CC2)c1", "Potency": "inconclusive: 35.5 µM [inhibitor, partial curve, poor fit]"}, {"smiles": "O=C(Cn1ncc2ccsc2c1=O)N1CCN(c2ccc(Cl)cc2)CC1", "Potency": "inconclusive: 25.1 µM [inhibitor, partial curve, poor fit]"}, {"smiles": "CC(C)(C)c1nnc(NC(=O)CCS(=O)(=O)c2ccccc2)s1", "activity change, negative = inhibition": "inactive: 28.2%"}, {"smiles": "CC(=O)Oc1ccc2ccccc2c1C(NC(=O)Cc1ccccc1)c1ccccc1Cl", "note": "(centres undefined)", "Potency": "inconclusive: 22.4 µM [inhibitor, single point]"}, {"smiles": "CC(Nc1ccc(-c2nc(-c3cccnc3)no2)cc1[N+](=O)[O-])c1ccccc1", "note": "(centres undefined)", "activity change, negative = inhibition": "inactive: 4.18%"}, {"smiles": "NC(CO)(CO)CCc1ccc(Sc2cccc(OCc3ccccc3)c2)cc1Cl", "Potency": "inconclusive: 27.3 µM [inhibitor, single point]"}, {"smiles": "O=C(/C=C/c1cc([N+](=O)[O-])ccc1OC(F)F)Nc1ccc(OC(F)F)cc1", "Potency": "inconclusive: 17.8 µM [inhibitor, single point]"}, {"smiles": "C=CCc1ccc(O)c(-c2ccc(O)c(CC=C)c2)c1", "Potency": "inconclusive: 39.8 µM [inhibitor, single point]"}, {"smiles": "CS(=O)(=O)c1ccc2nc(NC(=O)c3cccs3)sc2c1", "Potency": "inconclusive: 15.8 µM [inhibitor, single point]"}, {"smiles": "Cc1ccc(C(=O)OCC(=O)Nc2cc(C(C)(C)C)nn2-c2ccccc2)c(O)c1", "activity change, negative = inhibition": "inactive: -5.81%"}, {"smiles": "CC(=O)NC1=NC(=O)/C(=C/c2cc(C)n(-c3cccc(C(=O)O)c3)c2C)S1", "Potency": "inconclusive: 0.0212 µM [inhibitor, full curve, poor fit]"}, {"smiles": "CC(C)CCNC(=O)COc1cccc2c1OC(C)(C)C2", "Potency": "inconclusive: 29.9 µM [inhibitor, single point]"}, {"smiles": "CN1CCN(C2=Cc3ccccc3Sc3cc(F)c(Cl)cc32)CC1", "Potency": "inconclusive: 39.8 µM [inhibitor, single point]"}, {"smiles": "Nc1nccc(SCc2ccc(Cl)cc2Cl)n1", "activity change, negative = inhibition": "inactive: 0.558%"}, {"smiles": "O=C(/C=C/c1ccco1)Nc1ccc(-c2nc3ccccc3[nH]2)cc1", "Potency": "inconclusive: 10 µM [inhibitor, partial curve, poor fit]"}, {"smiles": "COC(=O)c1sccc1NC(=O)Cc1ccc(OC)c(OC)c1", "activity change, negative = inhibition": "inactive: 15.6%"}, {"smiles": "O=C(NC1CCCCC1)c1ccc(CSc2nc3ccncc3n2Cc2cccc(F)c2)cc1", "Potency": "inconclusive: 39.8 µM [inhibitor, single point]"}, {"smiles": "Cc1ccc(/C=C2/CNC/C(=C/c3ccc(C)cc3)C2=O)cc1", "Potency": "inconclusive: 31.6 µM [inhibitor, partial curve, poor fit]"}, {"smiles": "COC(=O)[C@H]1[C@H]2C[C@@H]3c4[nH]c5cc(OC)ccc5c4CCN3C[C@H]2C[C@@H](OC(=O)c2cc(OC)c(OC)c(OC)c2)[C@@H]1OC", "Potency": "inconclusive: 31.6 µM [inhibitor, single point]"}, {"smiles": "NC(=O)c1ccc(N=Cc2ccc([N+](=O)[O-])s2)cc1", "Potency": "inconclusive: 25.1 µM [inhibitor, single point]"}, {"smiles": "COc1ccc(N2CCN(C(=O)c3ccc(OCc4c(C)noc4C)c(OC)c3)CC2)cc1", "activity change, negative = inhibition": "inactive: -4.23%"}, {"smiles": "COc1cccc(C2=CC(c3ccccc3F)n3ncc(C(=O)Nc4ccc(F)cc4)c3N2)c1", "note": "(centres undefined)", "Potency": "inconclusive: 31.6 µM [inhibitor, single point]"}, {"smiles": "CC(O)(c1ccc(F)c(F)c1)c1nc(-c2ccc3ccccc3c2)cs1", "note": "(centres undefined)", "activity change, negative = inhibition": "inactive: -34.7%"}, {"smiles": "OC(COCCOc1ccc(Br)cc1)CN1CCN(Cc2ccccc2)CC1", "note": "(centres undefined)", "Potency": "inconclusive: 25.1 µM [inhibitor, single point]"}, {"smiles": "Cc1ccc(-c2noc(CCC(=O)NCCN3CCOCC3)n2)cc1", "activity change, negative = inhibition": "inactive: 4.41%"}, {"smiles": "CCn1c(CCNC(=O)c2ccc(OC)cc2)nnc1SCc1ccc(Cl)c(Cl)c1", "Potency": "inconclusive: 31.6 µM [inhibitor, single point]"}, {"smiles": "CC(=O)O[C@H]1CC(C)(C)C(=C=C/C(C)=C/C=C/C(C)=C/C=C/C=C(C)/C=C/C=C(\\C)C(=O)C[C@@]23O[C@]2(C)C[C@@H](O)CC3(C)C)[C@](C)(O)C1", "Potency": "inconclusive: 39.8 µM [inhibitor, single point]"}, {"smiles": "CCN(Cc1ccccc1)C(c1ccc(C)cc1)c1nnnn1C(C)(C)CC", "note": "(centres undefined)", "Potency": "inconclusive: 20 µM [inhibitor, partial curve, poor fit]"}, {"smiles": "COc1ccc(C2=CCN3CCCCC3C2)c(-c2ccc(OC)c(OC)c2)c1", "note": "(centres undefined)", "activity change, negative = inhibition": "inactive: 25.2%"}, {"smiles": "COc1ccc(C(=O)C2CCCN(Cc3cccn3-c3nccs3)C2)cc1F", "note": "(centres undefined)", "Potency": "inconclusive: 39.8 µM [inhibitor, single point]"}, {"smiles": "Cc1ccc2c(c1)C(c1ccccc1)N(C(=O)COc1ccc(Cl)cc1Cl)CC(=O)N2", "note": "(centres undefined)", "Potency": "inconclusive: 28.2 µM [inhibitor, single point]"}, {"smiles": "CCCCCOc1ccc(NC(=O)Cn2c(-c3nonc3N)nc3ccccc32)cc1", "activity change, negative = inhibition": "inactive: 2.17%"}, {"smiles": "Cc1cc(NC(=O)c2ccc3c(c2)OCCO3)no1", "Potency": "active: 11.2 µM"}, {"smiles": "CC(C)(C)c1ccc(C(=O)NCC(c2ccco2)S(=O)(=O)c2ccccc2)cc1", "note": "(centres undefined)", "Potency": "inconclusive: 25.1 µM [inhibitor, single point]"}, {"smiles": "N#C/C(=C/c1ccc(Sc2nc3ccccc3[nH]2)o1)c1ccccc1F", "Potency": "inconclusive: 39.8 µM [inhibitor, single point]"}, {"smiles": "O=C(Cc1cccs1)Nc1nnc(Cc2ccccc2)s1", "activity change, negative = inhibition": "inactive: 5.6%"}, {"smiles": "O=C(N/N=C/c1ccccn1)c1cc(-c2ccc(Cl)cc2)nc2ccccc12", "Potency": "inconclusive: 26.7 µM [inhibitor, partial curve, poor fit]"}, {"smiles": "S=C(NCCCN1CCOCC1)N1CCN(c2nc(-c3ccc(Cl)cc3)cs2)CC1", "Potency": "active: 3.16 µM"}, {"smiles": "CCOC(=O)c1c(-c2cccs2)csc1NC(=O)c1ccncc1", "Potency": "inconclusive: 31.6 µM [inhibitor, partial curve, poor fit]"}, {"smiles": "COc1ccc(C(=O)Oc2c(Sc3ccccc3)c(C)nn2-c2ccccc2)c(OC)c1", "Potency": "inconclusive: 31.6 µM [inhibitor, single point]"}, {"smiles": "CC(C)NC(=O)N1CCC(n2nccc2NC(=O)CCOc2ccccc2)CC1", "activity change, negative = inhibition": "inactive: 2.75%"}, {"smiles": "O=c1oc2ccccc2c(N2CCCCC2)c1CN1CCCCC1", "activity change, negative = inhibition": "inactive: -4.22%"}, {"smiles": "CC1=NNC(=O)/C1=C\\c1cn(-c2ccccc2)nc1-c1ccc(Cl)cc1", "Potency": "active: 12.6 µM"}, {"smiles": "CC(=O)N(C)c1ccc(N=C2C(=O)Nc3ccccc32)cc1", "activity change, negative = inhibition": "inactive: 3.93%"}, {"smiles": "Cc1onc(-c2ccccc2Cl)c1C(=O)N1CCN(c2ccc(F)cc2)CC1", "Potency": "inconclusive: 22.4 µM [inhibitor, partial curve, poor fit]"}, {"smiles": "O=C(Nc1nc(-c2ccc3c(c2)OCO3)cs1)c1ccncc1", "Potency": "inconclusive: 25.1 µM [inhibitor, partial curve, poor fit]"}, {"smiles": "C[C@H]1COC(=O)[C@H](NC(=O)OCC2c3ccccc3-c3ccccc32)C/C=C\\C[C@H](CC(=O)N(CCO)Cc2ccccc2)C(=O)N1", "activity change, negative = inhibition": "inactive: -24%"}, {"smiles": "Cc1ccccc1C(=O)Nc1nnc(CC(=O)N/N=C/c2cn(Cc3ccccc3)c3ccccc23)s1", "Potency": "inconclusive: 39.8 µM [inhibitor, single point]"}, {"smiles": "CN(C)C(=O)CSc1cccc2cccnc12", "Potency": "inconclusive: 25.1 µM [inhibitor, single point]"}, {"smiles": "CCCCCCCCC(c1nc2ccccc2[nH]1)N1CCN=C1c1cc2ccccc2[nH]1", "note": "(centres undefined)", "Potency": "inconclusive: 28.2 µM [inhibitor, single point]"}]}]}
